The full ranking holds about 110,000 compounds; the median of “z-score” is about -0.1, and the highest 2% start at about 2. The list shows a part of the results. The source made the active and inactive calls.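 How the source made its calls: active means z-score in the third read window above 3 or below -3; inactive means the rest.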

The assay concerns the target Metabotropic glutamate receptor 8 (Rattus norvegicus) (UniProt P70579). Description: mGluR8 Gi/Go-coupled signaling modulation – cell-based, rat, thallium flux, HTS, primary screen (AID 488969). The settings on record: HEK293 rat mGluR8, GIRK (G protein-gated inwardly rectifying potassium channel) thallium flux, FluoZin2; at 10 µM; stronger effect = higher value; submaximal glutamate (EC20) added with thallium.
UniProt P70579, sequence (P70579 whole entry, looked up): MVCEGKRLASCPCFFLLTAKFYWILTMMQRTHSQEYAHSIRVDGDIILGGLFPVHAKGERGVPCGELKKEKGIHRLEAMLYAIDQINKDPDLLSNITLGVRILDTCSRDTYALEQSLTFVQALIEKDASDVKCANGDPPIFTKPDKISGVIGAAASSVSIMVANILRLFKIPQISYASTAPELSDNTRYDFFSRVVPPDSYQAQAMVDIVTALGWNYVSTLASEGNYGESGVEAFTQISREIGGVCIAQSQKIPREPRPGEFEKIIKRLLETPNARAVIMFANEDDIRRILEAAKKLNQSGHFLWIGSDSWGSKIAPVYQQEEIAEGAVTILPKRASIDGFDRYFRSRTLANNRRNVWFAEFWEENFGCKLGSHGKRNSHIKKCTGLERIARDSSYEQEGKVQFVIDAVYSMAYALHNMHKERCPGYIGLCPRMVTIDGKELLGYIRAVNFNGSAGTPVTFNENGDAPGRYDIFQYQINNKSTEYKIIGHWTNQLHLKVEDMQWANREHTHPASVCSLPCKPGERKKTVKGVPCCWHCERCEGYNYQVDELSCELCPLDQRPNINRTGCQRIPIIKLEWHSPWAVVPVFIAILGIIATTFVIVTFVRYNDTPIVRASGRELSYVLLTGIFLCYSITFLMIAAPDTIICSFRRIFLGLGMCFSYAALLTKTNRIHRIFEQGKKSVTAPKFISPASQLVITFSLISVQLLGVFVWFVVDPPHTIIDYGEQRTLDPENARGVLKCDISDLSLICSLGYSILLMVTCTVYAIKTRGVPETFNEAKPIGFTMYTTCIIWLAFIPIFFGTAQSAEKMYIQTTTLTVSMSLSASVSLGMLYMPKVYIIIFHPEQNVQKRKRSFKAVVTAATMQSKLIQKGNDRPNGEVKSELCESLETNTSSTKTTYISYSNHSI
As for `COc1cccc(NC(=O)CSc2nnc(Cc3cccn3C)n2-c2ccc(F)cc2)c1`, the z-score is -0.673.
`COc1ccc(-c2cc(C(=O)O)c3c(C)nn(-c4ccccn4)c3n2)cc1` came in with a z-score of -0.0513.
Then `C#CCOC(=O)C(NC(=O)c1ccccc1)=C(C)C`, with -0.0291; and `COc1ccc(C(=O)N2CCN(S(=O)(=O)c3ccc(Cl)cc3)CC2)cc1OC`, with -0.647.
In turn, `COc1ccc(Nc2cc(C(=O)NCCCN3CCN(C)CC3)c3ccccc3n2)c(OC)c1` registered a z-score of 0.657.
Compound `O=C1c2ccccc2C(=O)N1CC(=O)N1c2ccccc2Sc2ccccc21` registered a z-score of -0.494.
Consider `CCN(CC)S(=O)(=O)c1cccc(NC(=O)/C=C/c2ccc([N+](=O)[O-])cc2)c1`, for which the z-score is -0.143.
Then `COc1cc(C2N(C)CCC3(OCCO3)C2(C)C)cc(OC)c1OC` (stereo unspecified), with -0.0713; and `O=C1CCc2cc(S(=O)(=O)N3CCN(C(=O)c4ccco4)CC3)ccc2N1`, with 1.15.
`NS(=O)(=O)c1ccc(CNC(=O)c2ccc(Br)o2)cc1` came in with a z-score of 0.122.
Then `Cc1cc(Nc2ccccc2)n(C(=O)c2ccc(Cl)cc2)n1`, with 0.82.
Then `Cc1cc(C)cc(NC(=O)CSc2nc3ccncc3[nH]2)c1`, with 2.24.
`Cc1ccc(CS(=O)(=O)c2ccccc2-c2nnc(-c3ccc(Cl)cc3)o2)cc1` showed a z-score of -0.114.
For the compound `CN(C(=O)c1ccc(S(=O)(=O)N2CCCC2)cc1)C1CCCCC1`, the z-score was -1.05.
The same measure for `COc1cc(CNn2c(C)n[nH]c2=S)cc(Cl)c1OCc1ccc(F)cc1`: -0.033; for `O=S(=O)(/N=C/c1ccccc1O)c1cccs1`: -0.0386.
The same measure for `COc1cccc(-c2n[nH]c(=S)n2Cc2ccco2)c1OC`: 0.0257.
Then `Nc1ncnc(Nc2ccc(F)cc2)n1`, with 0.0495.
Regarding `CCC(=O)NC(O)C(=O)c1ccc(C)cc1` (stereo unspecified), the z-score is -0.133.
The same measure for `Cc1cc(C)cc(N2C(=O)CC(N(C(=O)c3ccco3)c3cc(C)cc(C)c3)C2=O)c1` (stereo unspecified): -0.359; for `Cc1ccc(NS(=O)(=O)c2ccc3c(c2)C(=O)c2ccccc2C3=O)c(C)c1`: -0.0521.
As to `COC(=O)c1ccc(/C=N/N2CCN(Cc3ccc(C)cc3C)CC2)cc1`, the z-score stood at 2.42.
The compound `Cc1cc(C)c(S(=O)(=O)N(CC(=O)N2CCCC2)C2CCCCC2)c(C)c1` returned a z-score of -0.688.
The same measure for `O=C(Nc1ccc(Cl)cc1C(=O)NCCN1CCOCC1)c1ccc(Cl)cc1Cl`: -0.842.
The same measure for `CC(C)CC(=O)Nc1ccccc1N1CCN(C(=O)c2ccccc2)CC1`: -2.63.
For the compound `O=C(CCn1cccc1)NC1CCCc2ccccc21` (stereo unspecified), the z-score is -0.136.
As for `Cc1ccc(C)c(C(=O)CC2(O)C(=O)N(C)c3ccccc32)c1` (stereo unspecified), the z-score was -0.422.
With `O=C(CN1CCN(C2CCCCC2)CC1)Nc1ccccc1-c1ccccc1`, the z-score is 0.348.
Then `CN(CC(=O)O/N=C(\N)c1ccccn1)S(=O)(=O)c1ccccc1`, with -0.352.
The compound `Cc1ccc(NC(=O)N/C=C/c2ccco2)c(C)c1` gave a z-score of -0.28.
Then `c1cncc(-c2nn3c(Cn4cnc5ccccc54)nnc3s2)c1`, with 0.0748; and `O=C(C[n+]1ccccc1)Nc1cc(C(F)(F)F)ccc1Cl`, with -0.138.
Then `COc1ccccc1-n1c(SCC(=O)N2CCCCC2)nc2cccnc21`, with -0.234.
The same measure for `O=C(CCSc1ccccc1)Nc1nccs1`: 0.115; for `O=C(c1cccs1)c1ccc(-c2cccs2)s1`: -0.213.
On to `Fc1ccc(-c2cnc[nH]2)cc1`, for which the z-score is -0.0766.
With `O=C1NC(c2ccco2)Nc2ccccc21` (stereo unspecified), the z-score stood at 0.126.
`COc1ccccc1N(CC(=O)NCc1ccccn1)S(C)(=O)=O`: the z-score is -0.398.
In turn, `Cc1cccc(CSc2nnnn2-c2ccccc2)c1` came in with a z-score of -0.134.
`Cc1ccc(C(=O)NNC(=O)CSc2nnc3c(n2)[nH]c2ccc(C)cc23)cc1` displayed a z-score of 0.0348.
The same measure for `CC(C)=C1C2CCC1C1C(=O)N(c3nc(-c4ccccc4)c(C)s3)C(=O)C21` (stereo unspecified): -0.116.
Regarding `CCCSc1nnc(Cn2c(=O)sc3ccccc32)n1-c1ccccc1`, the z-score was -0.182.
For the compound `CC(C)(C)NC(=O)C1CCN(C(=O)c2ccc(Br)cc2)CC1`, the z-score was -0.166.
The same measure for `O=C(c1ccc(Br)s1)N1CCN(c2ncccn2)CC1`: 0.776.
`Cc1cccc(C)c1NC(=O)CN1N=NC2C(=O)N(c3cccc(Cl)c3)C(=O)C21` (stereo unspecified) showed a z-score of -0.178.
For `Cc1cc(C)c2c(N)c(C(=O)c3ccc(Cl)cc3Cl)sc2n1`, the z-score was -0.216.
Consider `C#CCONC(=O)c1cc(OCC(F)(F)F)ccc1OCC(F)(F)F`, for which the z-score is -0.0792.
The same measure for `CC1(C)CC(=O)c2sc(NC(=O)C3COc4ccccc4O3)nc2C1` (stereo unspecified): -0.113; for `Cc1cccc(C)c1NC(=O)CSc1nnc(-c2ccccc2)n1Cc1ccc2c(c1)OCO2`: -0.423; for `O=C(NNS(=O)(=O)c1ccc(Br)cc1)c1ccncc1`: -0.199.
With `COc1cc(OC)cc(C(=O)Nc2cc(NC(=O)c3ccco3)ccc2OC)c1`, the z-score was -0.995.
The same measure for `CCCCn1c(-c2csc(C(C)C)c2)n[nH]c1=S`: active: 6.36; for `O=C(CCCN1C(=O)c2ccccc2C1=O)N1CCc2ccccc2C1`: -0.236; for `CC(C)OC(=O)c1c2c(n3ccccc13)C(=O)c1ccccc1C2=O`: -0.105.
For `O=C(CN(C(=O)c1ccc2c(c1)OCCO2)c1ccccc1)NCC1CCCO1` (stereo unspecified), the z-score is -0.236.
The same measure for `N#Cc1ccc(-c2ccc(F)cc2)nc1Oc1ccc(F)cc1`: 0.0358.
For `COc1ccc(C2N=C(N)N=C(N)N2c2ccc(C)cc2)cc1` (stereo unspecified), the z-score is 0.272.
The same measure for `O=C(NC1CCCC1)c1ccc(Br)o1`: -0.454; for `Cc1nc(CCNS(=O)(=O)c2cccs2)cs1`: 0.256; for `CC(C)c1ccc(NC(=S)NC2CCN(Cc3ccccc3)CC2)cc1`: 0.569.
Then `Cn1cc(Cl)c(C(=O)Nc2cccc(Cl)c2Cl)n1`, with 0.0454; and `Cc1cc(O)c(C(C[N+](=O)[O-])c2ccc(Cl)cc2)c(=O)o1` (stereo unspecified), with 0.103; and `CCOC(=O)c1sc2nc(CC(=O)OC)nc(NCc3ccc(F)cc3)c2c1C`, with 0.0081.
Then `CCN(CC)CCNC(=O)c1cc2c(-c3ccc(Cl)cc3)nn(C)c2s1`, with 0.278; and `CC(=O)Nc1nc2ccc(C(=O)NC3CCCCC3)cc2s1`, with -0.32.
The compound `CCOC(=O)c1sc(NC(=O)C2CC2)nc1C` displayed a z-score of -0.0762.
The same measure for `CCCC(=O)Nc1ccc2c(c1)nc(CCNC(=O)c1ccccc1)n2C`: -0.349; for `O=C(O)CCc1ccc(-c2ccc(Cl)cc2)n1Cc1ccco1`: -0.427; for `CCOc1ccc2nc(N3C(=O)/C(=C/c4ccc(Cl)cc4)NC3=S)sc2c1`: 1.05.
`CCOC(=O)c1[nH]c(C)c(C(=O)NC2CCCCC2)c1C`: the z-score was active: 3.27.
The same measure for `Cc1ccc(C)c(N2CCN(C(=O)c3ccc(NS(=O)(=O)c4c(C)noc4C)cc3)CC2)c1`: -0.175.
On to `COC(=O)c1ccc(C(=O)OC)c(NC(=O)CSc2nc(-c3ccco3)cc(C(F)(F)F)n2)c1`, for which the z-score was active: -3.68.
Then `COc1ccc(-n2cc3c(-c4cccc(Br)c4)nnc(C)c3n2)cc1`, with -0.735; and `Cc1cc(C)c2cc(C#N)c(N3CCCN(S(=O)(=O)c4ccccc4)CC3)nc2c1`, with -0.0781; and `Cc1ccc(NC(=O)CS(=O)(=O)c2c[nH]c3ccccc23)c(C)c1`, with -0.305.
In turn, `C=CCn1c(SCc2cc(C(C)=O)ccc2OCC)nc2ccccc2c1=O` returned a z-score of -0.297.
The same measure for `O=S(=O)(Nc1ccc2c(c1)nc1n2CCN(Cc2ccccc2)C1)c1ccc(Cl)cc1`: -1.03; for `CCCOP(=O)(OCCC)C(NC(=O)C(C)(C)C)c1ccccc1` (stereo unspecified): 0.0289; for `COc1ccc(NC(=O)c2cc3nc(-c4ccccc4)cc(-c4ccccc4)n3n2)c(OC)c1`: -0.94.
Regarding `CC1(C)CC(NC(=O)c2coc(=O)c(Br)c2)CC(C)(C)N1`, the z-score is -0.14.
Then `O=S(=O)(NCc1ccccn1)c1ccc(Br)s1`, with -0.0365.
As to `Cc1cc2ncn(CCOc3ccccc3C#N)c2cc1C`, the z-score was -1.65.
Then `CSCCC(NC(=O)c1cc(C)oc1C)C(=O)O` (stereo unspecified), with -0.102; and `CCCC(=O)OCC(=O)Nc1ccc(OC(F)F)cc1`, with -0.256.
For `Cc1cc(NC(=O)CCC(=O)NNC(=O)c2ccc(C(C)(C)C)cc2)no1`, the z-score is -0.141.
Compound `COc1ccc(CCNC(=O)C2CCCN2C(=O)NC2CCCCC2)cc1OC` (stereo unspecified) registered a z-score of -1.01.
Compound `CC(=O)NC(Cc1ccccc1)C(=O)N1CCN(C(=O)c2ccco2)CC1` (stereo unspecified) showed a z-score of -0.125.
The same measure for `CC(C)(C)C1CCC2(CC1)C(Nc1cccc(C(F)(F)F)c1)=NC(=S)N2CC#N` (stereo unspecified): 2.58; for `CCc1ccc(NC(=O)C(=O)NCCN2CCN(C(=O)c3ccco3)CC2)cc1`: -0.229; for `Cc1cc(S(=O)(=O)Nc2nc(CN3CCOCC3)nc3sc4c(c23)CCCC4)ccc1F`: -2.11.
Then `O=C(NCCN1CCOCC1)c1c(F)c(F)c(F)c(F)c1F`, with -0.171; and `c1ccc(-c2csc(NC3=NCCCCC3)n2)cc1`, with -0.237; and `COc1ccccc1N(CC(O)COc1ccc(C)cc1)S(=O)(=O)c1ccccc1` (stereo unspecified), with -0.199.
On to `CC(C)CCN1C(=O)c2ccccc2C1C(=O)NCc1cccnc1` (stereo unspecified), for which the z-score is -0.24.
`CCOC(=O)N1CCN(C(=S)NCCOC)CC1` yielded a z-score of -0.256.
The compound `CCOCc1cnc(C)nc1NCC(=O)c1c(C)[nH]c2cc(C)ccc12` had a z-score of -0.201.
The same measure for `COC(=O)CN(c1cc(C(F)(F)F)ccc1Cl)S(C)(=O)=O`: -0.196; for `S=c1[nH]nc(-c2ccccc2)n1/N=C/C=C/c1ccco1`: 0.28; for `COc1ccc(Nc2ccnc(Nc3ccc(OC)cc3)n2)cc1`: 1.04.
Then `COc1ccc(OC)c(/C=N/NC(=O)c2cc[n+](Cc3ccccc3)cc2)c1`, with -0.0886; and `CCOC(=O)/C(C#N)=C\c1cc(C)n(-c2ccccc2)c1C`, with 0.0173; and `CCCCNC(=S)NNC(=O)c1csc(C(C)C)c1`, with 0.133.
Then `O=C(CN1C(=O)CC(c2ccco2)Sc2ccccc21)Nc1ccccc1F` (stereo unspecified), with 0.0909.
With `CC(=O)N1CCN(c2nc(-c3ccco3)c3c(c2C#N)CC(C)(C)SC3)CC1`, the z-score is -0.491.
Then `CCCCN(C(=O)NC(=O)Nc1ccc(C)cn1)S(C)(=O)=O`, with 0.0807.
`COc1ccc(CN2CCOCC2)cc1` returned a z-score of -0.0956.
The same measure for `Cc1ccc(C)c(-n2c3nc(=O)[nH]c(=O)c-3cc3cc([N+](=O)[O-])ccc32)c1`: -0.477; for `COc1ccccc1CNC(=O)CCn1c(=O)[nH]c2ccsc2c1=O`: -0.264.
`CC(=O)Oc1ccc2c(C)cc(=O)oc2c1` registered a z-score of -0.164.
On to `Cc1ccc(N2C(=O)c3ccccc3C2Nc2ccc(S(=O)(=O)N3CCOCC3)cc2)nc1` (stereo unspecified), for which the z-score is -0.444.
Then `O=C(Cn1nnc2c(sc3nc4c(c(-c5ccccc5)c32)CCC4)c1=O)c1ccccc1`, with -0.0441.

These data come from PubChem BioAssay AID488969 (Vanderbilt High Throughput Screening Facility, 2010).
